For seven molecules, binding results are on record in publication PMC3531375.

The chains behind the UniProt entries cited, without tags or fusion partners. Where a name states a change or a piece, a line headed by the entry shows the natural chain unless it says otherwise. A line that says so, or that is headed by a name, gives the form on record, which may keep a tag or linker. Residues count along the entry.
UniProt P15205: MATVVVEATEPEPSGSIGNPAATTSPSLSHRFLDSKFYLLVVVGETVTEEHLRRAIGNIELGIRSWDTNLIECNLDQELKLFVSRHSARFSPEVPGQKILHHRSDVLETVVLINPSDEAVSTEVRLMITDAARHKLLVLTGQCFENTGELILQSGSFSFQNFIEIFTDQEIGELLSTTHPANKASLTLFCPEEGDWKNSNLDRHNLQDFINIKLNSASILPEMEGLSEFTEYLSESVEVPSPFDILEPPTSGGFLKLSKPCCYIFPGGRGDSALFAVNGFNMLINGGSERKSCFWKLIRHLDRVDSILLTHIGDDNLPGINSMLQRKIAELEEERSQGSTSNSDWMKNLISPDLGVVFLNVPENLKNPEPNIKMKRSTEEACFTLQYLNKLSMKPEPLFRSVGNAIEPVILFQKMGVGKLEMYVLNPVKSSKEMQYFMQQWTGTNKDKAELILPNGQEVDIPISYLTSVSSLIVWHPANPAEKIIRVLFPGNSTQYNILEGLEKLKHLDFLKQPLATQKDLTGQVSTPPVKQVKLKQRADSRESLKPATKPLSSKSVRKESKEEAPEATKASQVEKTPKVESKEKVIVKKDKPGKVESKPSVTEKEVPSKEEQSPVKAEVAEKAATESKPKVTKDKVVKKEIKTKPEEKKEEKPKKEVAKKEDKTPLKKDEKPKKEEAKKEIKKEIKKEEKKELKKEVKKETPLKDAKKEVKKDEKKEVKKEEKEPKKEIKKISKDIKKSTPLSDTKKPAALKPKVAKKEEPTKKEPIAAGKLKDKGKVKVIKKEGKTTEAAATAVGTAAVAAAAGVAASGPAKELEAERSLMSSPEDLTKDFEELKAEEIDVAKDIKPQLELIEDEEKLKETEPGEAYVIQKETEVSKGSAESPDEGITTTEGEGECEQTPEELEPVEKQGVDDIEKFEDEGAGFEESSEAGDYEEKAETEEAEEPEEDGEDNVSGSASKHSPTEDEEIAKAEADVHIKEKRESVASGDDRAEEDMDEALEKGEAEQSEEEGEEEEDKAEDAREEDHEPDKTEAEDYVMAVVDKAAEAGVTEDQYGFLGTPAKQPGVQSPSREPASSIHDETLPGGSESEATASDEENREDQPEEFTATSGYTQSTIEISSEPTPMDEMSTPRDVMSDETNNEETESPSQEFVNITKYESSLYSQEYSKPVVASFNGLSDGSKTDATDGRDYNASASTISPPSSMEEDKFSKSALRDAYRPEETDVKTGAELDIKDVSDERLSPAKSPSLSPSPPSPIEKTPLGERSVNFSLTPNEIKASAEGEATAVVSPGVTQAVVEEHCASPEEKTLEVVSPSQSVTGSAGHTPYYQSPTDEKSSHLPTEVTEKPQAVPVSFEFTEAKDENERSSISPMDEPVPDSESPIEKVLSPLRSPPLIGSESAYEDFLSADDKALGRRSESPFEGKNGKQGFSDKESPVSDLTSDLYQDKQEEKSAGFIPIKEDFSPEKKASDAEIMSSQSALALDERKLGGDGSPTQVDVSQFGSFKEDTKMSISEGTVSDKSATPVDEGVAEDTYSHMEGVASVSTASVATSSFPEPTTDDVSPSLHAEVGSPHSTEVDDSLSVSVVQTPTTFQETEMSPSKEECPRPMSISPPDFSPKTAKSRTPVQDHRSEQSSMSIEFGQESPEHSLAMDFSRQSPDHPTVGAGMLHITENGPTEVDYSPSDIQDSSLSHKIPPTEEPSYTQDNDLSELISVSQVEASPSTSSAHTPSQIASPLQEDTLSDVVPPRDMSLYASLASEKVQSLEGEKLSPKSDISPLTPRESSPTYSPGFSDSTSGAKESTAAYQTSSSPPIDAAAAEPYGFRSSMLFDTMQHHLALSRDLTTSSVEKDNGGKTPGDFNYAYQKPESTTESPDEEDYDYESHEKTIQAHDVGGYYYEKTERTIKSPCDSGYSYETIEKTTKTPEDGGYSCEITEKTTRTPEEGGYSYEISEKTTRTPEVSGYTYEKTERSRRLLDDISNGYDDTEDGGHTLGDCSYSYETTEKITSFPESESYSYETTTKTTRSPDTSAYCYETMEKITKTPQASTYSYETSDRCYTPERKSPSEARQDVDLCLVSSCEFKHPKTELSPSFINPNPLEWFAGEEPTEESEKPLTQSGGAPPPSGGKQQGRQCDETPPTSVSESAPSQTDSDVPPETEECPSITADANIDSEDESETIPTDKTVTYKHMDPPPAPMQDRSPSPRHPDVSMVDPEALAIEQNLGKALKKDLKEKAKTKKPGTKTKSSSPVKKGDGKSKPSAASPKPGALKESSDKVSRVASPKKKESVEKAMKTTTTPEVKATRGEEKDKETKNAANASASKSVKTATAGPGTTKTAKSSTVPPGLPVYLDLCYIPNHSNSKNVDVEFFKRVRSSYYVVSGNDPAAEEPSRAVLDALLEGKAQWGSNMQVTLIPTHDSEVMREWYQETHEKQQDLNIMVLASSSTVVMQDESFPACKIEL
MAP1B light chain 1, C-terminal myc-tag, expressed in N1E115 cells: residues 2210-2459 of P15205
GST fusion of light chain 1 (LC1) of MAP1B, amino acids 2100-2459 (P14873, residues 2100-2459): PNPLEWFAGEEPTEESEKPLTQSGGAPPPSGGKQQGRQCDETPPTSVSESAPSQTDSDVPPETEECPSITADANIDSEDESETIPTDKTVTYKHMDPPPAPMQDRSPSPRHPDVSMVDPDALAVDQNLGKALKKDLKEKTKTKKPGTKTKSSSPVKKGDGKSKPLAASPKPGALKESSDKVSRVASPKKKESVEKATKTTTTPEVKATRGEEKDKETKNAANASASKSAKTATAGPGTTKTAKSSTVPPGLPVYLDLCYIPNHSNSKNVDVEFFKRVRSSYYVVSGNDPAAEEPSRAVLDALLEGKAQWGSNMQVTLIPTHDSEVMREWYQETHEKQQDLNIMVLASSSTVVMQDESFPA
GST fusion of the N-terminal domain (NTD, microtubule binding domain) of LC1 of MAP1B, amino acids 2100-2336 (P14873, residues 2100-2336): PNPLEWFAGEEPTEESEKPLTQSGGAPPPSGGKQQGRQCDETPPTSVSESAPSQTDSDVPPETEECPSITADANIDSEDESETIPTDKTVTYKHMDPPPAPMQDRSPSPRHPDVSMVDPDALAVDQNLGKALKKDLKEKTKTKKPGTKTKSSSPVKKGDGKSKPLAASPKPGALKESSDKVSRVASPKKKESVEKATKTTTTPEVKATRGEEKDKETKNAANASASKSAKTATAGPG
GST fusion of the C-terminal domain (CTD, actin binding domain) of LC1 of MAP1B, amino acids 2336-2459 (P14873, residues 2336-2459): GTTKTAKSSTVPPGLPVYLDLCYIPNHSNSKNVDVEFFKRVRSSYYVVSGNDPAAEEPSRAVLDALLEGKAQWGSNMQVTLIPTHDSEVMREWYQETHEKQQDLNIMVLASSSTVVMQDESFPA

Results are given in words; binding and its absence hold for the method and conditions named. Binding seen in cells or lysates may run through a third protein. Some binding calls cover weakened binding; strength is not graded here. For some assays here: Sequences can lack the tags named with a protein.

Experiment [1] deals with MAP1B light chain 1, C-terminal myc-tag, expressed in N1E115 cells (UniProt P15205). Description: co-IP; anti-c-myc antibody with protein A or G beads on lysates of N1E115 cells (with endogenous MAP1B) transfected with myc-tagged MAP1B constructs and tTA; 4 h at 4°C, washes in lysis buffer A; blot for endogenous Tiam1.
The target of experiment [2] is MAP1B full length, C-terminal myc-tag, expressed in N1E115 cells (UniProt P15205). The description is as above.
The target in experiment [3] is GST fusion of light chain 1 (LC1) of MAP1B, amino acids 2100-2459 (mouse) (UniProt P14873). Description: pull-down; 40 µg of GST fusion on glutathione-Sepharose beads incubated overnight at 4°C with 1 mg of fetal brain lysate; six washes with lysis buffer B; blot with anti-Tiam1; only the target purified.
Experiment [4] addresses GST fusion of the N-terminal domain (NTD, microtubule binding domain) of LC1 of MAP1B, amino acids 2100-2336 (mouse) (UniProt P14873). Described as above.
In experiment [5] the target is GST fusion of the C-terminal domain (CTD, actin binding domain) of LC1 of MAP1B, amino acids 2336-2459 (mouse) (UniProt P14873). The description is as above.
Experiment [6] deals with GST fusion of light chain 1 (LC1) of MAP1B, amino acids 2100-2459 (mouse) (UniProt P14873). As to the kind of experiment: pull-down; 40 µg of GST fusion on glutathione-Sepharose beads incubated overnight at 4°C with 1 mg of lysate of COS7 cells transfected with FLAG-tagged Tiam1 constructs; six washes with lysis buffer B; blot with anti-FLAG; only the target purified.
Experiment [7] addresses GST fusion of the N-terminal domain (NTD, microtubule binding domain) of LC1 of MAP1B, amino acids 2100-2336 (mouse) (UniProt P14873). Described as above.
The target of experiment [8] is GST fusion of the C-terminal domain (CTD, actin binding domain) of LC1 of MAP1B, amino acids 2336-2459 (mouse) (UniProt P14873). The description is as above.

On to “Tiam1, endogenous in N1E115 neuroblastoma cells (from UniProt Q60610 1-1591)”, for which the binding entry in experiment [1] and in experiment [2] was “binds” throughout.
In the case of “Tiam1, endogenous in fetal brain lysate (from UniProt Q60610 1-1591)”, the binding entry in experiment [3], in experiment [4] and in experiment [5] was “binds” each time.

B1: FLAG-Tiam1 T4, Dbl-homology domain (DH, amino acids 1000-1263) (domain or fragment, UniProt Q60610 1000-1263)
chain: EQVAAFCRSLHEMSPSDSSPSPQDATSPQLATTRQLSDADKLRKVICELLETERTYVKDLNCLMERYLKPLQKETFLTQDELDVLFGNLTEMVEFQVEFLKTLEDGVRLVPDLEKLEKVDQFKKVLFSLGGSFLYYADRFKLYSAFCASHTKVPKVLVKAKTDTAFKAFLDAQNPRQQHSSTLESYLIKPIQRVLKYPLLLRELFALTDAESEEHYHLDVAIKTMNKVASHINEMQKIHEEFGAVFDQLIAEQTGEKKEVADLS
For B1, the binding entry in experiment [6] was “no binding”.

B2: FLAG-Tiam1 T1, N-terminal domain and PEST motif (amino acids 1-400) (domain or fragment, UniProt Q60610 1-400)
chain: MGNAESQNVDHEFYGEKHASLGRKHTSRSLRLSHKTRRTRHASSGKAIHRNSEVSTRSSSTPSIPQSLAENGLEPFSQEGALDDFGDPIWVDRVDMGLRPVSYTDSSVTPSVDGSIVLTAASVQSMPDSEESRLYGDDATYLAEGGRRQCPYTSNGPTFMETASFKKKRSKSADIWREDSLEFSLSDLSQEHLTSNEEILGSAEEKDCEEARGMETEASPRQLSTCQRANSLGDLYAQKNSGVKANGGPRNRFSSYCRNLVSDIPDLAKHKMPPAAAEETPPYSNYNTLPCRKSHCLSEGATNPQISLSKSMQGRRAKTTQDVNTGEGSEFADSGIEGATTDTDLLSRRSNATNSSYSPPTGRAFVGSDSGSSSTGDRARQGVYENFRRELEMSTTNSES
In the case of B2, in experiment [6], the binding result is “no binding”.

B3: FLAG-Tiam1 T3, Ras binding domain (RBD) and PDZ domain (amino acids 740-1000) (domain or fragment, UniProt Q60610 740-1000)
chain: REKEVVLPSVHQHNPDCDIWVHEYFTPSWFCLPNNQPALTVVRPGDTARDTLELICKTHQLDHSAHYLRLKFLMENRVQFYIPQPEEDIYELLYKEIEICPKVTQNIHIEKSDAAADNYGFLLSSVDEDGIRRLYVNSVKETGLASKKGLKAGDEILEINNRAAGTLNSSMLKDFLSQPSLGLLVRTYPEPEGGVELLENPPHRVDGPVDLGESPLAFLTSNPGHSLSSEQGSSAETAPEEGEGPDLESSDETDHSSKSTE
B3: the binding entry in experiment [6] is listed as “no binding”.

B4: FLAG-Tiam1 T2, N-terminal pleckstrin domain (N-PH, amino acids 400-740) (domain or fragment, UniProt Q60610 400-740)
chain: SLEEAGSAHSDEQSSGTLSSPGQSDILLTAAQGTVRKAGALAVKNFLVHKKNKKVESATRRKWKHYWVSLKGCTLFFYETDGRSGIDHNSVPKHAVWVENSIVQAVPEHPKKDFVFCLSNSLGDAFLFQTTSQTELENWITAIHSACAAAVARHHHKEDTLRLLKSEIKKLEQKIDMDEKMKKMGEMQLSSVTDSKKKKTILDQIFVWEQNLEQFQMDLFRFRCYLASLQGGELPNPKRLLAFASRPTKVAMGRLGIFSVSSFHALVAARTGEIGVRRRTQAMSRSASKRRSRFSSLWGLDTTSKKKQGRPTINQVFGEGTDAVKRSLEGIFDDTVPDGKR
On to B4, for which the binding result in experiment [6], in experiment [7] and in experiment [8] was “binds” in each case.

B5: FLAG-Tiam1 T5, C-terminal pleckstrin domain (C-PH, amino acids 1263-1591) (domain or fragment, UniProt Q60610 1263-1591)
chain: SMGDLLLHTSVIWLNPPASLGKWKKEPELAAFVFKTAVVLVYKDGSKQKKKLVGSHRLSIYEEWDPFRFRHMIPTEALQVRALPSADAEANAVCEIVHVKSESEGRPERVFHLCCSSPESRKDFLKSVHSILRDKHRRQLLKTESLPSAQQYVPFGGKRLCALKGARPAMSRAVSAPSKSLGRRRRRLARNRFTIDSDAISASSPEKEPQQPAGGGDTDRWVEEQFDLAQYEEQDDIKETDILSDDDEFCESLKGASVDRDLQEQLQAASISQRARGRRTLDSHASRMTQLKKQAALSGINGGLESASEEVIWVRREDFAPSRKLNTEI
In the case of B5, the binding entry in experiment [6], in experiment [7] and in experiment [8] was “binds” in each case.
